Common to all, as to test: microbe, parasite or virus in culture
Common to all, as to format: functional, organism-based

Assay [1] has as its system Leishmania donovani. Particulars: MHOM/ET/67/L82, 96 h.
The test system of assay [2] is Leishmania donovani. Particulars: MHOM/ET/67/L82, 72 h.
Assay [3] concerns Plasmodium falciparum. Particulars: K1, 72 h.
The subject of assay [4] is Trypanosoma brucei rhodesiense. To be noted: STIB 900, 72 h.
Assay [5] concerns Trypanosoma cruzi. To be noted: Tulahuen C4 (LacZ), 96 h.

The structures appear in SMILES notation.

For `Clc1ccc(COC(Cn2ccnc2)c2ccc(Cl)cc2Cl)c(Cl)c1` (stereo not drawn) [MICONAZOLE], the IC50 (as a rule, the concentration at which inhibition is half-maximal) in assay [1] is 10.8 µM; in assay [2] it was 4.39 µM; in assay [3], 0.49 µM; in assay [4] it was 36.6 µM.
`Clc1ccccc1C(c1ccccc1)(c1ccccc1)n1ccnc1` [CLOTRIMAZOLE]: the IC50 was 2.23 µM in assay [2], 0.11 µM in assay [3] and 23.7 µM in assay [4].
Regarding `CN(C)CCCN1c2ccccc2CCc2ccc(Cl)cc21` [CLOMIPRAMINE], the concentration for half-maximal inhibition (IC50) in assay [2] was determined as 75.7 µM; in assay [5] it was 20.3 µM; in assay [3] it was 1.3 µM; in assay [4] it was 2.06 µM.
With `CNCC[C@H](Oc1ccc(C(F)(F)F)cc1)c1ccccc1`, the half-inhibitory concentration (IC50) was 19.1 µM in assay [5], 1.21 µM in assay [3] and 2.01 µM in assay [4].
On to `OCCN1CCN(CCCN2c3ccccc3Sc3ccc(C(F)(F)F)cc32)CC1` [FLUPHENAZINE], for which the results for the IC50 in assay [2], in assay [5] and in assay [4] were 46.7 µM, 13 µM and 2.03 µM, respectively.
As for `CCN(CC)CCOc1ccc(/C(=C(/Cl)c2ccccc2)c2ccccc2)cc1` [ENCLOMIPHENE], the half-inhibitory concentration (IC50) is 21.6 µM in assay [2], 11.5 µM in assay [5], 1.37 µM in assay [3] and 6.21 µM in assay [4].
As for `Clc1ccc2c(c1)C(N1CCNCC1)=Nc1ccccc1O2` [AMOXAPINE], the IC50 in assay [5] turned out to be 17.9 µM; in assay [3], 1.14 µM; in assay [4] it was 1.87 µM.
As for `Clc1ccc(COC(Cn2ccnc2)c2ccc(Cl)cc2Cl)cc1` (stereo not drawn) [ECONAZOLE], the concentration for half-maximal inhibition (IC50) was determined as 14 µM in assay [1], 6.15 µM in assay [2], 0.32 µM in assay [3] and 41.7 µM in assay [4].

(Values after ChEMBL document CHEMBL3392926, “Antiprotozoal Activity Profiling of Approved Drugs: A Starting Point toward Drug Repositioning”.)
